# Some of the results follow. Binding of human antibodies (heavy:light variable regions, tested as scFv in one mRNA-display pool) to influenza hemagglutinin, with or without the stem antibody CR9114 bound first. Score = (mean enrichment − median) / interquartile range of that screen; higher = more enriched, 0 = typical non-binder. Active = above the paper's cut-off per screen: stems 28; unblocked H1 Solomon Islands 5, H1 Michigan 3, H3 5, H5 19, H7 2.85, both B 5; blocked 9, 7, H5 10, H7 10, B Phuket 10, B Lee 11.5. Scores are scaled within each screen and are no affinities; replicates correlate at about 0.6 to 0.9, and antibodies rare in the pool are noisier.
# B1: antibody 3G02 (protein)
# chain 1: VQLVESGGGVVQPGGSLRLSCAASSFTFRNYAMFWVRQAPGKGLEWLALIRNDGSEQNYAEVVKGRFTISRDNSKKTLYLQMNSLRPEDTAVYYCARNHLYAAYNSYYYGMDDWGQGTTVTVSS
# chain 2: DIQMTQSPSSLSTSVGDRVTITCQASQGIRNFLNWYQQKPGKAPKLLIYDASILETGIPSRFSGSGSGTDFTFTINSLQPEDIAIYYCQQYVNFPLTFGGGTKVEIK
# B2: antibody 3E01 (protein)
# chain 1: VQLVQSGAEVKKPGASVKVSCKTSGYTFTIYEINWVRQATGQGLEWMGTMNPNSATTGSAQKFQGRLTMTGNTSLRTTYMELSSLTSEDTAVYYCARLVSCGGDCYYFDSWGQGTLVTVSS
# chain 2: SYELTQAPSVSVAPGQTARIPCGGNNIGTKSVHWYQQRPGQAPVLVVYDDSDRPSGIPERFSGSNSGNTATLTISRVEAGDEADYYCQVWDSSGDQFGGGTKLTVL
# B3: K77-1D03 (protein)
# chain 1: EVQLFESGGDLIQPGGSLRLSCAAFAFTFSSYAMTWVRQAPGKGLEWVSGISGSGYRTHYADSVKGRFTISRDNSKNTLYLQMNSLRGEDTAVYYCAKVSSDFTIYGEGYYYYDMDVWGQGTTVTVSS
# chain 2: DIQMTQSPSSLSASVGDRVTIACRASQYIRTYLNWYQQKIGKAPKALIYGASDLESGVPSRFSGSGSGTDFNLTISSLQPEDFATYYCQQTYTTPPFTFGPGTKVEIK
# B4: antibody 3G01 (protein)
# chain 1: VQLVESGGGVVQPGRSLRLSCAASGFTFGSYGMHWVRQAPGKGLEWVSVIYYDGRNKYYADSVKGRFTISRDNLKNTLYLQMNSLRAEDTAVYYCARDHNSYHYFDYWGRGTLVTVSS
# chain 2: NFMLTQPRSVSGSPGETVTISCTSSGRIVSGYVQWCQQRPGSAPITVIYESDQRPSGVPNRFSGSIDSSSQSASLTISGLETEDEADYYCQSSDRDNQGIFGGGTRLTVL
# B5: K77-2D01 (protein)
# chain 1: QVQLVQSGAEVKKPGASVKVSCKASGYTFTDHHMHWVRQAPGQGLEWMGMINPSAASITYAPRFLGRVTMTRDTSTSTVYMELSSLRPEDTAVYYCAKVGIAVTGRGPHFYYYGLDVWGQGTTVTVSS
# chain 2: EIVLTQSPGTLSLSPGERATLSCRASQSVSDSYLAWYQHKPGQAPRLLMYGASSRATGIPERFSGSGSGTDFTLTISRLEPEDFAVYYCHRHGGVFGGGTKVEIK
# B6: 01.o.02 (protein)
# chain 1: QVQLQESGPGLVKPSETLSLICTVSSYSITSGYYWGWIRQPPGKGLEWIGNVYHSGSTHYNPSLKSRVTISLDTPKKQVSLRLSSLTAADTAVYYCTHSIIGNGRDFWGQGTLVAVSS
# chain 2: EIVMTQAPGTLSWSPGERTTLSGRASQQVSIIYLAWYQQRPEQAPSLIMYGASSRARGIPDRFSGRGLGTDFTLIISRQEPEDSTEYCCQQCGSTYLTFGQGTKVEIK
# Biological target: Influenza A H1N1 A/Michigan/45/2015 hemagglutinin ectodomain
# Test: mRNA display binding score; higher = more enriched on the antigen
# Details: antigen blocked with: 2 µM CR9114 IgG
# Method: (§1)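 A pool of natively paired antibodies, displayed as scFv on mRNA, was selected once on antigen-coated beads and sequenced before and after; two replicates.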
row,Binder,mRNA display binding score
1,B1,inactive: 0.698
2,B2,inactive: -0.0717
3,B3,inactive: 0.5
4,B4,inactive: -0.119
5,B5,inactive: -0.498
6,B6,inactive: -0.107

# Same assay, conditions: antigen blocked with: nothing
row,Binder,mRNA display binding score
1,B1,inactive: 0.835
2,B2,inactive: -0.255
3,B3,inactive: 0.303
4,B4,inactive: 0.524
5,B5,inactive: -0.301
6,B6,inactive: 1.19

# Biological target: Influenza A H1N1 A/Solomon Islands/3/2006 hemagglutinin ectodomain
# Test: as above
# Details: antigen blocked with: 2 µM CR9114 IgG
# Method: as §1
row,Binder,mRNA display binding score
1,B1,active: 37.2
2,B2,inactive: -0.036
3,B3,inactive: 1.1
4,B4,inactive: -0.256
5,B5,inactive: -0.726
6,B6,inactive: 1.87

# Same assay, conditions: antigen blocked with: nothing
row,Binder,mRNA display binding score
1,B1,active: 74
2,B2,inactive: -0.135
3,B3,inactive: 0.0492
4,B4,inactive: -0.266
5,B5,inactive: -0.569
6,B6,inactive: 0.197

# Biological target: Influenza A H3N2 A/Singapore/INFIMH-16-0019/2016 hemagglutinin ectodomain
# Test: as above
# Details: antigen blocked with: nothing
# Method: as §1
row,Binder,mRNA display binding score
1,B1,inactive: 1.86
2,B2,inactive: -0.203
3,B3,inactive: 0.111
4,B4,inactive: 0.15
5,B5,inactive: 1.04
6,B6,inactive: 1.1

# Biological target: Influenza A H5N1 A/Qinghai/1A/2005 hemagglutinin ectodomain
# Test: as above
# Details: antigen blocked with: 2 µM CR9114 IgG
# Method: as §1
row,Binder,mRNA display binding score
1,B1,inactive: 0.574
2,B2,inactive: -0.0314
3,B3,inactive: 2.7
4,B4,inactive: -0.061
5,B5,inactive: -0.251
6,B6,inactive: 0.689

# Same assay, conditions: antigen blocked with: nothing
row,Binder,mRNA display binding score
1,B1,inactive: 0.803
2,B2,inactive: -0.27
3,B3,inactive: -0.0402
4,B4,inactive: 1.04
5,B5,inactive: -0.322
6,B6,inactive: 0.887

# Biological target: Influenza A H7N9 A/Shanghai/2/2013 hemagglutinin ectodomain
# Test: as above
# Details: antigen blocked with: 2 µM CR9114 IgG
# Method: as §1
row,Binder,mRNA display binding score
1,B1,inactive: 0.202
2,B2,inactive: -0.568
3,B3,inactive: 1.63
4,B4,inactive: 1.12
5,B5,inactive: -0.132
6,B6,inactive: 2.61

# Same assay, conditions: antigen blocked with: nothing
row,Binder,mRNA display binding score
1,B1,inactive: 0.837
2,B2,inactive: -0.285
3,B3,inactive: 0.582
4,B4,inactive: 0.959
5,B5,inactive: 0.223
6,B6,inactive: 1.65

# Biological target: Influenza B/Lee/1940 hemagglutinin ectodomain
# Test: as above
# Details: antigen blocked with: 2 µM CR9114 IgG
# Method: as §1
row,Binder,mRNA display binding score
1,B1,inactive: -0.548
2,B2,inactive: -0.11
3,B3,inactive: 0.436
4,B4,inactive: 0.359
5,B5,inactive: 1.3
6,B6,inactive: 0.289

# Same assay, conditions: antigen blocked with: nothing
row,Binder,mRNA display binding score
1,B1,inactive: 0.115
2,B2,inactive: -0.295
3,B3,inactive: -0.127
4,B4,inactive: 3.24
5,B5,inactive: 1.05
6,B6,inactive: 0.0659

# Biological target: Influenza B/Phuket/3073/2013 hemagglutinin ectodomain
# Test: as above
# Details: antigen blocked with: 2 µM CR9114 IgG
# Method: as §1
row,Binder,mRNA display binding score
1,B1,inactive: 0.755
2,B2,inactive: -0.218
3,B3,inactive: 0.26
4,B4,inactive: 5.76
5,B5,inactive: 0.0044
6,B6,inactive: 0.969

# Same assay, conditions: antigen blocked with: nothing
row,Binder,mRNA display binding score
1,B1,inactive: 0.387
2,B2,inactive: -0.212
3,B3,inactive: 0.0569
4,B4,active: 16.6
5,B5,inactive: -0.379
6,B6,inactive: 0.124

# Reference: the supplement of paper PMC11383711
